Test results from the supplement of paper PMC12217912.
Some of the results follow. Sequences were assembled here from the parent chain. Inactive controls read about 0.05.

B1: TEV protease; numbered along this chain (parent)
chain: MGESLFKGPRDYNPISSSICHLTNESDGHTTSLYGIGFGPFIITNKHLFRRNNGTLVVQSLHGVFKVKDTTTLQQHLVDGRDMIIIRMPKDFPPFPQKLKFREPQREERICLVTTNFQTKSMSSMVSDTSCTFPSGDGIFWKHWIQTKDGQCGSPLVSTRDGFIVGIHSASNFTNTNNYFTSVPKNFMELLTNQEAQQWVSGWRLNADSVLWGGHKVFMVKPEEPFQPVKEATQL

Variants of: B1
Assay: raw area under fraction-flipped curve 0-4 h after induction (AUC4h, not background-subtracted), DNA-recorder readout of cleavage of the substrate (dimensionless); higher = more cleavage of the substrate by the protease variant
Conditions: temperature: 34 °C; time window: 0-4 h after rhamnose induction
Procedure: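 In vivo DNA recorder in E. coli TOP10(DE3) ΔrhaA at 34 °C. Each TEVp single-site mutant (parent TEVp 0) is paired with a single-site variant of the 7-mer TEVs (canonical ENLYFQ|S). The substrate sits between flexible linkers in a Bxb1-sfGFP-TEVs-SsrA fusion, so cleavage stabilises Bxb1 and speeds flipping of a recombination array, read by NGS. The value is the raw area under the fraction-flipped curve over 0-4 h after rhamnose induction (AUC4h), with ≥20 reads per time point. It is not background-subtracted; inactive controls average about 0.047.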
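Further: Bxb1 expression induced with 0.2% (w/v) L-rhamnose at OD600 near 0.5, cultures sampled hourly, flipped fraction per protease–substrate barcode pair counted by paired-end Illumina sequencing.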

Variant	area with substrate ENLAFQS	area with substrate ENLEFQS	area with substrate ENLFFQS	area with substrate ENLGFQS	area with substrate ENLKFQS	area with substrate ENLNFQS	area with substrate ENLQFQS	area with substrate ENLTFQS	area with substrate ENLVFQS	area with substrate ENLDFQS	area with substrate ENLHFQS	area with substrate ENLIFQS	area with substrate ENLLFQS	area with substrate ENLMFQS	area with substrate ENLPFQS	area with substrate ENLRFQS	area with substrate ENLSFQS	area with substrate ENLWFQS	area with substrate ENLCFQS
R106I	0.0636	0.0585	0.0642	0.0715	0.0695	0.071	0.0674	0.0702	0.0585	–	–	–	–	–	–	–	–	–	–
G150F	0.0652	0.0572	0.0722	–	0.0473	0.0616	0.0568	–	0.0589	0.065	0.0587	0.0621	0.0326	0.0681	0.0638	0.0592	0.0558	0.0486	–
G150L	0.0659	0.0772	0.0658	0.075	0.0627	0.0706	0.0596	–	–	0.0562	0.0567	0.0551	0.043	0.0729	0.0571	0.0486	0.0522	0.0408	0.0295
D128H	0.0667	0.0698	0.108	0.0732	0.0873	–	0.028	–	–	0.0693	0.0753	0.0979	0.077	–	–	–	0.0629	–	0.0785
S169C	0.0522	0.0637	0.0762	–	0.0528	0.0649	–	0.0485	0.0874	0.0644	0.0688	0.0672	0.0801	–	0.0733	0.0722	0.065	0.0518	0.0729
S169N	0.0474	0.0414	0.0824	–	0.0588	0.0666	0.0498	–	0.0629	0.058	0.0582	0.0634	0.0519	0.0623	0.0451	0.0601	0.0607	0.0627	0.0597
L156K	0.0528	–	–	0.0684	0.0491	0.0562	–	0.0599	–	0.0566	0.0602	–	–	0.055	0.0496	0.0571	0.0553	–	0.0547
I167F	0.0601	0.063	0.0642	–	0.0577	0.0595	0.0494	–	0.055	0.0568	0.067	0.0568	0.0609	0.0612	0.0662	0.0707	0.0602	0.0601	0.061
L99S	0.0501	0.0685	0.0782	0.0477	0.0722	0.0522	–	–	–	0.0604	0.052	0.0795	0.0783	0.0487	0.0543	–	0.0593	–	0.0679
L99C	0.0956	0.0928	0.0803	–	0.0646	–	0.0664	0.0525	0.0805	0.0886	0.0812	0.0754	0.0628	–	0.0769	–	0.0696	0.0718	0.0881
P155E	0.0545	0.0506	–	–	–	–	0.0521	–	0.0517	0.0481	0.0579	–	0.0559	–	0.06	–	0.0596	0.0333	0.0545
V157N	0.057	0.0537	0.0657	–	0.0615	0.0509	–	0.0629	–	0.0469	0.0523	0.0504	0.047	–	0.0359	0.0679	0.0506	0.0478	0.0542
P134E	0.0672	–	0.073	–	0.0696	0.0718	0.0638	–	0.0731	0.0663	0.0669	0.0925	0.0568	–	0.065	0.0526	0.0463	–	–
Q118A	0.0802	–	0.0855	–	0.0821	0.0645	0.0235	–	0.102	0.0574	0.0737	0.0825	–	–	0.0385	–	–	0.0773	–
Q118G	0.059	0.137	0.0759	–	0.0791	0.0388	0.0727	–	–	0.0708	0.0344	0.0927	–	–	0.0649	0.0614	0.0647	–	0.0662
G138Q	0.0536	–	0.0863	–	–	0.0432	0.0629	–	–	0.0409	–	–	0.105	–	0.0632	–	–	–	0.0536
V113L	0.0613	0.0612	0.0703	–	0.0791	0.0234	0.0675	–	–	0.061	0.0701	0.0825	–	0.0838	0.064	0.082	0.0589	0.0864	0.0632
V113N	0.0646	–	0.0624	0.0545	0.0278	0.0611	0.0565	–	–	0.0516	0.0558	0.0662	–	–	–	0.0534	0.0695	0.0496	–
V113D	0.0551	0.0543	0.0515	0.0582	0.054	0.052	–	–	–	0.0617	0.0437	0.0517	0.058	0.0556	0.056	–	0.0509	–	0.0444
W144Q	0.0616	–	0.1	–	0.0851	0.0666	–	–	0.0853	0.0579	0.0745	–	–	–	0.0588	0.0522	0.0727	0.083	0.0465
V165D	0.0549	–	–	–	0.0694	0.0567	0.0402	0.0591	0.0423	0.0516	–	0.0654	0.0372	–	0.0435	0.0554	–	–	–
V126G	0.064	–	0.0916	–	0.0926	0.0491	0.0986	–	0.0895	0.068	–	–	0.0664	–	–	–	–	–	–
Q151S	0.0575	0.0798	0.0809	0.0656	0.054	0.0644	–	–	–	–	0.0603	–	0.0887	–	–	–	0.0735	0.0623	–
Q151H	0.078	0.0552	0.088	–	0.0727	0.055	0.0477	–	0.0807	0.0692	–	0.0757	0.0744	–	–	0.0645	0.0765	0.0491	–
K148T	0.0595	0.068	0.0391	–	0.0815	0.0946	0.078	–	0.0589	0.0711	0.0659	–	–	0.074	0.0564	0.0466	0.0579	–	–
K148M	0.06	0.0715	0.0779	0.0672	0.0779	0.0694	–	–	–	0.0649	0.074	–	0.0731	0.0871	0.0303	–	0.0702	0.0803	0.0654
R160A	0.0625	0.109	0.0835	–	0.0772	0.0531	–	–	0.0928	0.0735	0.0774	0.0755	–	0.0713	0.0506	0.0829	0.0531	–	–
